About 800 (1.6%) of roughly 50,000 compounds showed an effect of 50% or more. The list shows a part of the results.

This assay addresses Bcl-2-like protein 10 (Homo sapiens) (UniProt Q9HD36). The assay can be described thus: TR3 peptide-Bcl-B binding displacers, biochemical primary FP assay, phenotype converters (AID 1240).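 Note: 0% = Bcl-B with tracer peptide and DMSO and 100% = tracer peptide lacking Bcl-B.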 As to conditions: GST-Bcl-B / FITC-TR3 peptide fluorescence polarization; stronger effect = higher value; compound at 3.75 mg/L.
UniProt Q9HD36, sequence (Q9HD36 whole entry, looked up): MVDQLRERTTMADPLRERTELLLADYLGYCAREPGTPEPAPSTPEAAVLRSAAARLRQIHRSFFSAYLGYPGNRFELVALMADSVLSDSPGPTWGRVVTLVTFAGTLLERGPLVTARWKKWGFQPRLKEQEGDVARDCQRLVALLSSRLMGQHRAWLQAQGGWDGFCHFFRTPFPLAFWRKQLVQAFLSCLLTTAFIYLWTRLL
For the compound `O=C1C2ON(c3ccc(Cl)cc3)C(c3ccc(F)cc3)C2C(=O)N1c1ccccc1` (configuration not stated), the displacement stood at 2.5%. Turning to `O=C1c2cccc3c(N4CCCCC4)ccc(c23)C(=O)N1c1ccc(Cl)cn1`, the displacement turned out to be 25.4%. As for `O=C(CCCOc1ccc(Cl)cc1Cl)N1CCCc2ccccc21`, the displacement was -12.7%. Regarding `CCOc1ccc(N2C(=O)/C(=C/c3ccc4c(c3)OCO4)SC2=S)cc1`, the displacement was 6.1%.

For the compound `COc1ccc(CCN2C(=O)/C(=C/c3sccc3C)SC2=S)cc1OC`, the displacement is -1.7%. Turning to `CN(C)c1ccc(NS(=O)(=O)c2ccc(F)cc2)cc1`, the displacement is 8.7%. In the case of `O=C(c1ccc(-c2ccc(Cl)cc2)o1)N1CCOCC1`, the displacement is 21.9%. Next, `O=c1[nH]c(=O)n(-c2ccccc2Cl)c(O)c1C=Nc1cccc(F)c1`: 8.7%. Next, `Cc1ccc(N2C(=O)/C(=C/c3ccc(O)c(O)c3)SC2=S)cc1C`: 7%; `CCn1c2ccccc2c2cc(C=Nc3ccccc3C(=O)Nc3ccccc3)ccc21`: -5.9%; `Cc1cc(NC(=O)CSc2nc(-c3ccccc3)cc(-c3ccccc3)n2)no1`: 11.1%. For the compound `CCCn1c(=O)c(C(=O)Nc2ccc(F)cc2)c(O)c2ccccc21`, the displacement came to 9.1%. `COC(=O)c1ccc(NC(=O)COc2ccc(C)cc2Br)cc1`: the displacement is -10.6%.

In the case of `O=C1Nc2ccccc2/C1=c1/sc2n(c1=O)CCN=2`, the displacement is -2.1%. Next, `CCOc1ccc(-c2nnc(NC(=O)CSCc3ccccc3)s2)cc1`: 21.1%; `Cc1ccnc(NC(=O)c2cc(I)ccc2Cl)c1`: -4%.

For the compound `O=C1NC(=S)NC(=O)C1=Cc1ccccc1OCc1ccccc1Cl`, the displacement amounted to 8.8%. On to `COc1ccccc1N1CCN(/N=C\c2cccn2C)CC1`, for which the displacement is -4.6%. For `CCOc1cc(/C=C2/SC(=S)NC2=O)ccc1OC`, the displacement came to 119%. For `O=C(CCCC(=O)OCC(F)(F)C(F)F)Nc1ccc(Br)cc1`, the displacement was -3.1%.

Consider `Cc1cccc(NC(=O)/C(C#N)=C\c2ccc(OCC(=O)O)cc2)c1`, for which the displacement was -1.7%. As for `Cc1cc(Cl)ccc1NC(=O)C(=O)NC(C)C`, the displacement stood at 31.9%. As to `Cc1cc(OCC(=O)Nc2ccc3c(c2)OCCO3)cc(C)c1Cl`, the displacement is 1%.

Turning to `O=C(Nc1ccc(Cl)cn1)c1cccc(Cl)c1Cl`, the displacement was determined as 7.9%. Regarding `Cc1ccc(N(C)S(=O)(=O)c2ccc(Cl)cc2)cc1`, the displacement was found to be 0.6%. `COc1ccc(/C=N/Nc2ncc(Br)cn2)cc1`: the displacement is -11.3%. As to `O=C(O)c1ccc(C(=O)c2ccccc2)o1`, the displacement was -18.2%. Turning to `CCCCNc1c2c(nc3ccccc13)CC(C)(C)CC2=O`, the displacement was determined as 1.6%. For the compound `COCC(COCCCNC(=O)Nc1ccc(Br)cc1)OC` (configuration not stated), the displacement was -9.9%. For the compound `CCN1C(=O)/C(=C\c2ccc(-c3ccc(C(=O)O)cc3)o2)SC1=S`, the displacement was -49.9%.

Turning to `Cc1cccc(NC(=O)CCCN2C(=O)c3cccc4cccc(c34)C2=O)c1`, the displacement worked out at 4%. With `CCOc1c(/C=C2\Sc3ccccc3C2=O)cccc1OC`, the displacement is 4.5%.

Turning to `CCCc1c(C)nc2c(Br)cccc2c1SCC(=O)O`, the displacement is 2.1%. Turning to `Cc1ccc2oc(-c3ccc(NC(=O)c4ccc(-c5ccc(Cl)cc5)o4)cc3O)nc2c1`, the displacement is -3.5%. For `CCSC1=C(C#N)C(c2cccs2)C(C(=O)Nc2ccccc2OC)=C(C)N1` (configuration not stated), the displacement came out at 2.5%.

For the compound `C=CCc1cccc(/C=N/NC(=O)c2cc(C3CC3)[nH]n2)c1O`, the displacement is -14.1%. With `CCC(NC(=O)c1ccccc1NC(=O)c1ccc(OC)cc1)C(=O)O` (configuration not stated), the displacement was -7.4%. As to `O=C(O)c1ccc(-c2ccccc2OC(F)(F)F)o1`, the displacement was -1.6%. In the case of `COc1cc(C=C2C(=O)NC(=O)NC2=O)ccc1OCCC(C)C`, the displacement worked out at 12.4%. As for `C(=N\Nc1nc(-c2ccccc2)cs1)/c1cccnc1`, the displacement is -19.5%. As for `CC1CN(S(=O)(=O)c2ccc(C(=O)Nc3nc(-c4ccc([N+](=O)[O-])cc4)cs3)cc2)CC(C)O1` (configuration not stated), the displacement stood at 13.7%. For `CCOc1ccc(/C=C(\NC(C)=O)C(=O)O)cc1`, the displacement is -6.3%. Turning to `COc1ccc2c(c1OC)C(=O)OC2Nc1cc(C(=O)O)cc(C(=O)O)c1` (configuration not stated), the displacement is -0.8%. For `CCCc1ccc2c(N)c(C(=O)c3ccc(Cl)cc3)sc2n1`, the displacement stood at 0.5%. On to `CC(=O)N1CCN(C2=NC(=O)/C(=C/c3ccccc3)S2)CC1`, for which the displacement is 5.3%. As for `CNC(=O)/C(=C/c1cccc([N+](=O)[O-])c1)NC(=O)c1ccc(OC)cc1`, the displacement was 10.8%. Take `O=C(/C=C/c1ccco1)N1CCN(c2ccc(F)cc2)CC1`: the displacement was found to be 6.8%. As for `Clc1ccccc1-c1ccc(/C=N/Nc2nc(N3CCOCC3)nc(N3CCOCC3)n2)o1`, the displacement was determined as 1.3%.

Turning to `O=C(NC1C2CC3CC(C2)CC1C3)c1ccccc1Br` (configuration not stated), the displacement worked out at 5.1%. As to `CN1CCN(NC(=O)Nc2ccc(Cl)c(Cl)c2)CC1`, the displacement is -6.1%. Take `Cc1cc(C=C2C(=O)c3ccccc3C2=O)c(C)n1-c1cccc(Cl)c1`: the displacement turned out to be 180%. In the case of `COc1cccc(NC2=C(Cl)C(=O)N(Cc3ccccc3)C2=O)c1`, the displacement was -4.4%. Turning to `Cc1c(C#N)c(N=CN(C)C)c(C(=O)c2ccc(Br)cc2)n1-c1ccc(Br)cc1`, the displacement is -5.4%.

In the case of `Cc1cc(NC2CCCCC2)nc2ccccc12`, the displacement was -3.4%. Take `CCOC(=O)CCC(=O)Nc1cc(-c2cccc(C)c2)[nH]n1`: the displacement amounted to 9.9%. For the compound `CCn1c2ccccc2c2cc(CN3CCN(Cc4cc(OC)ccc4O)CC3)ccc21`, the displacement is 18.2%. The value for `COc1ccc(NC(=O)CC2(c3ccc(OC)cc3)C(=O)c3ccccc3C2=O)cc1` was -6.2%; that for `C=CCn1c2ccccc2c2nnc(SCC)nc21` was -4.5%; that for `COc1ccc(/C=C2\SC(=Nc3ccc(O)cc3)NC2=O)cc1OC` was -6.3%.

In the case of `Nc1nc(NCCCN2CCOCC2)cc(-c2ccccc2)n1`, the displacement was -6.1%. Next, `O=[N+]([O-])c1cc(-n2ncnc2-c2ccc(Br)cc2)ccc1Cl`: -7.7%; `Cc1ccccc1N1OC2C(=O)N(c3ccc(F)cc3)C(=O)C2C1c1ccccc1` (configuration not stated): -3.8%. Regarding `c1ccc(Nc2nnc(CSc3nc4ccccc4s3)s2)cc1`, the displacement turned out to be 12.8%. For `O=C(c1cc2n(n1)C(C(F)(F)F)CC(c1ccc(Cl)cc1)N2)N1CCN(c2ccccc2)CC1` (configuration not stated), the displacement is 9.6%.

`CN1CCN(c2ccc([N+](=O)[O-])c(NCc3ccc(Cl)cc3)c2)CC1`: the displacement stood at 7.1%. The value for `Fc1ccc(OCCOCCOc2ncnc3ccccc23)cc1` was 0.7%; that for `CC12CS(=O)(=O)CC1SC(=S)N2c1ccccc1` (configuration not stated) was -3.3%. For the compound `CSc1nnc(-c2ccco2)n1-c1ccccc1`, the displacement was -11.4%. Next, `CCOc1ccc(C(=O)Nc2ccc(OC(F)(F)F)cc2)cc1Br`: -7.7%. Regarding `Cc1cccc(OCC(=O)NCC(=O)N/N=C/c2cccs2)c1`, the displacement was 3.9%. The value for `N#C/C(=C\c1ccc(-c2cccc(C(F)(F)F)c2)o1)C(=O)O` was -0.2%. `Cc1ccccc1NCC(=O)N/N=C\c1cccnc1`: the displacement was 5.7%. Regarding `O=C1NC(=S)NC(=O)C1=Cc1cc(Cl)c(O)c(Cl)c1`, the displacement came out at 5.5%. Consider `O=C(CN(c1ccc(Cl)cc1Cl)S(=O)(=O)c1ccccc1)Nc1ccc(F)cc1`, for which the displacement was -8.1%. Next, `CCOc1ccc(C(=O)Nc2ccc(OC)c(Cl)c2)cc1`: 12.1%; `O=c1[nH]c(=O)n(-c2ccc(F)cc2)c(O)c1C=Nc1ccc2c(c1)OCO2`: -15.2%. As for `Oc1ccc(Nc2nc3ccccc3nc2Nc2ccc(O)cc2)cc1`, the displacement was -3.5%. On to `COc1ccc(/C=C2\C(=O)NN(c3ccc(Cl)c(Cl)c3)C2=O)cc1OC`, for which the displacement is -13.2%.

On to `COc1ccc(-c2c(C#N)c(N)n3c(nc4ccccc43)c2C#N)cc1OC`, for which the displacement turned out to be 3%. Take `CCSc1nc2ccccc2n1C(=O)/C=C/c1cccs1`: the displacement is 0.6%. Take `CN(C)c1ccc(/C=C2\N=C(c3cccc(Cl)c3)OC2=O)cc1`: the displacement is -17.7%. Turning to `CC(NC(=O)C(F)(Cl)C(F)(F)F)c1ccccc1` (configuration not stated), the displacement is -5.4%. As to `CCN(CC)CCCCOc1ccccc1F`, the displacement was determined as 13.2%.

`Cc1cc(Cl)ccc1NC(=O)C1CCCN1C(=O)OC(C)(C)C` (configuration not stated): the displacement is -4.6%. Turning to `CCOc1ccc(C2/C(=C(\O)c3ccccc3)C(=O)C(=O)N2c2cccnc2)cc1` (configuration not stated), the displacement amounted to 0.2%. As for `COc1ccc(-c2ccc(/C=C3\C(=O)NC(=O)N(c4ccc(Cl)cc4)C3=O)o2)c([N+](=O)[O-])c1`, the displacement amounted to 47%. `COc1cc2c(cc1OC)C(SC)=NC(C)(C)C2`: the displacement came to 6.6%. Take `COc1ccccc1-c1coc2cc(OCc3ccccc3)ccc2c1=O`: the displacement is 8.6%. Consider `O=C(c1ccccc1)N1CCN(S(=O)(=O)c2ccccc2)C1`, for which the displacement came out at 7.4%. Next, `COc1ccc(-c2nc(-c3ccc(NC(C)=O)cc3)[nH]c2-c2ccc(OC)cc2)cc1`: 8%; `O=C(Nc1ccccc1C(=O)c1ccccc1)c1ccccc1Br`: -10.1%. Next, `O=C(c1cc2nc(-c3ccccc3)cc(C(F)(F)F)n2n1)N1CCOCC1`: 6.8%; `CC(=O)c1cc(Cn2cnc([N+](=O)[O-])n2)cs1`: -1.9%.

As to `COc1ccc(/C=C2\SC(=O)N(CC(=O)Nc3ccc(C)cc3C)C2=O)cc1`, the displacement came to 7.5%.

Regarding `Cc1cc(/C=C2\C(=O)NC(=O)N(c3ccc4c(c3)OCO4)C2=O)c(C)n1-c1ccccc1`, the displacement is 16.1%.

On to `Clc1ccc(Cl)c(-c2nnc(-c3ccc4c(c3)OCO4)o2)c1`, for which the displacement is -7.8%. Turning to `COC(=O)c1c(F)c(F)c(N2CCOCC2)c(F)c1F`, the displacement worked out at 4.4%.

`Oc1ccc(C2NN=C(c3ccccc3)S2)cc1` (configuration not stated): the displacement is -2.8%. The value for `COC(=O)C1=C(C)N(c2ccc(C)cc2)/C(=C\c2sccc2C)C1=O` was 11.6%. Consider `COc1ccc2c(c1OC)C(=O)N(c1cccc(C(F)(F)F)c1)C2`, for which the displacement was -19.7%. As for `O=C1c2ccccc2C(=O)N1c1nc(-c2ccccc2)cs1`, the displacement was -7%. In the case of `CN(C)c1cc(N/N=C/c2ccccc2O)nc(N(C)C)n1`, the displacement was -4%. With `Cc1ccc(Cc2cnc(NC(=O)c3ccccc3Cl)s2)cc1`, the displacement is 9.7%. For the compound `O=S(c1ccc2ccccc2c1)N1CCOCC1` (configuration not stated), the displacement was -2.2%. Next, `Oc1oc(-c2ccccc2)cc1N=Nc1ccccc1`: -0.2%.

On to `CN(C)S(=O)(=O)NCCCNc1ccc([N+](=O)[O-])cc1`, for which the displacement was -1.9%.

Regarding `COc1cc(/C=C2\C=C(c3ccc(Cl)cc3)OC2=O)cc(Br)c1OC(C)=O`, the displacement was -19.7%.

With `O=C(Nc1ccc([N+](=O)[O-])cc1)c1ccccc1C(F)(F)F`, the displacement was -10.2%. Consider `O=C1C(=O)N(c2cccc(Cl)c2)C(c2cccc([N+](=O)[O-])c2)/C1=C(\O)c1ccccc1` (configuration not stated), for which the displacement is 4.3%. Regarding `CCCC1=NN(c2ccc([N+](=O)[O-])cc2)C(=O)/C1=C\N(C)C`, the displacement was -5.5%. On to `O=C(COc1ccc(Cl)cc1)Nc1ccc(Br)c(Cl)c1`, for which the displacement was determined as 14.1%.

With `COC(=O)c1c(C(F)(F)F)cc(-c2ccccc2)nc1C`, the displacement was 8.8%.

Values taken from PubChem BioAssay AID1240 (Sanford-Burnham Center for Chemical Genomics, 2008).
